Measured values reported in publication PMC11149917, “Translational and Therapeutic Evaluation of RAS-GTP Inhibition by RMC-6236 in RAS-Driven Cancers” (Cancer Discovery, 2024).
This continues a long series; more values of the same kind are listed elsewhere.

System: PRISM panel of 845 cancer cell lines
Assay: PRISM assay
Type: cell-based, human
Description: The PRISM cell set comprised 845 cell lines representing more than 45 lineages (see Supplementary Table S1 for cell line information), which largely overlapped with the Cancer Cell Line Encyclopedia; https://portals.broadinstitute.org/ccle). Cell lines were grown in RPMI without phenol red and supplemented with 10% or 20% FBS for adherent and suspended lines, respectively. Parental cell lines were stably infected with a unique 24-nucleotide DNA barcode via lentiviral transduction and blasticidin selection. After selection, barcoded cell lines were expanded and subjected to quality control (Mycoplasma contamination test, an SNP test for confirming cell line identity, and barcode ID confirmation). Approved cell lines were then pooled (20–25 cell lines per pool) based on doubling time similarity and frozen in assay-ready vials.
RMC-6236 was added to 384-well plates at 8-point concentration with 3-fold dilutions in triplicate. These assay-ready plates were then seeded with the thawed cell line pools. Adherent cell pools were plated at 1,250 cells per well, whereas suspension and mixed adherent/suspension pools were plated at 2,000 cells per well. Treated cells were incubated for 5 days, and then lysed. Lysate plates were collapsed together prior to barcode amplification and detection.
Each cell line's unique barcode is located in the 3′UTR of the blasticidin-resistance gene and therefore is expressed as mRNA. Total mRNA was captured using magnetic particles that recognize polyA sequences. Captured mRNA was reverse-transcribed into cDNA and then the sequence containing the unique PRISM barcode was amplified using PCR. Finally, Luminex beads that recognize the specific barcode sequences in the cell set were hybridized to the PCR products and detected using a Luminex scanner which reports the signal as a median fluorescent intensity (MFI).
• Each detection well contained 10 control barcodes in increasing abundances as spike-in controls. For each plate, we first create a reference profile by calculating the median of the log2(MFI) values across negative control wells for each of these spiked-in barcodes. • For each well, a monotonic smooth p-spline was fitted to map the spike-in control levels to the reference profile. Next, we transform the log2(MFI) for each cell barcode using the fitted spline to allow well-to-well comparisons by correcting for amplification and detection artifacts. • Next, the separability between negative and positive control treatments was assessed. In particular, we calculated the error rate of the optimum simple threshold classifier between the control samples for each cell line and plate combination. The error rate is a measure of the overlap of the two control sets and was defined as error = (FP + FN)/n, where FP is false positives, FN is false negatives, and n is the total number of controls. A threshold was set between the distributions of positive and negative control log2(MFI) values (with everything below the threshold said to be positive and above said to be negative) such that this value is minimized. Additionally, we also calculated the dynamic range of each cell line. […] Additionally, any cell line that had less than 2 passing replicates was also omitted for the sake of reproducibility. Finally, we computed viability by normalizing with respect to the median negative control for each plate.
For every gene with nonsilent mutations in at least four cell lines, we compared the AUC values between cells with and without those mutations using a t test. This analysis was carried out for (i) the full data set; (ii) excluding cell lines with nonsilent KRAS mutations; and (iii) excluding cell lines that have either KRAS or NRAS nonsilent mutations.

## CCn1c(-c2cc(N3CCN(C)CC3)cnc2[C@H](C)OC)c2c3cc(ccc31)-c1csc(n1)C[C@H](NC(=O)[C@H]1C[C@@H]1C)C(=O)N1CCC[C@H](N1)C(=O)OCC(C)(C)C2 [RMC-6236]
Cell line 8505C_THYROID
  RMC-6236: RevMed PRISM: AUC: 1
Cell line 2313287_STOMACH
  RMC-6236: RevMed PRISM: AUC: 0.7386
Cell line A388_SKIN
  RMC-6236: RevMed PRISM: AUC: 0.4378
Cell line A2058_SKIN
  RMC-6236: RevMed PRISM: AUC: 0.7602
Cell line ABC1_LUNG
  RMC-6236: RevMed PRISM: AUC: 0.874
Cell line ACCMESO1_PLEURA
  RMC-6236: RevMed PRISM: AUC: 0.7864
Cell line AGS_STOMACH, KRAS p.G12D
  RMC-6236: RevMed PRISM: AUC: 0.427
Cell line ALLSIL_HAEMATOPOIETIC_AND_LYMPHOID_TISSUE
  RMC-6236: RevMed PRISM: AUC: 0.8931
Cell line AN3CA_ENDOMETRIUM, HRAS p.F82L
  RMC-6236: RevMed PRISM: AUC: 0.7326
Cell line BC3C_URINARY_TRACT
  RMC-6236: RevMed PRISM: AUC: 0.7036
Cell line BDCM_HAEMATOPOIETIC_AND_LYMPHOID_TISSUE
  RMC-6236: RevMed PRISM: AUC: 0.9284
Cell line BECKER_CENTRAL_NERVOUS_SYSTEM
  RMC-6236: RevMed PRISM: AUC: 0.7563
Cell line BHY_UPPER_AERODIGESTIVE_TRACT
  RMC-6236: RevMed PRISM: AUC: 0.6434
Cell line BICR22_UPPER_AERODIGESTIVE_TRACT
  RMC-6236: RevMed PRISM: AUC: 0.7157
Cell line BICR56_UPPER_AERODIGESTIVE_TRACT
  RMC-6236: RevMed PRISM: AUC: 0.5083
Cell line BLUE1_HAEMATOPOIETIC_AND_LYMPHOID_TISSUE
  RMC-6236: RevMed PRISM: AUC: 0.888
Cell line BT12_SOFT_TISSUE
  RMC-6236: RevMed PRISM: AUC: 0.5192
Cell line BT16_SOFT_TISSUE
  RMC-6236: RevMed PRISM: AUC: 0.723
Cell line BT549_BREAST
  RMC-6236: RevMed PRISM: AUC: 1
Cell line BV173_HAEMATOPOIETIC_AND_LYMPHOID_TISSUE
  RMC-6236: RevMed PRISM: AUC: 0.5147
Cell line C32_SKIN
  RMC-6236: RevMed PRISM: AUC: 0.8279
Cell line C33A_CERVIX
  RMC-6236: RevMed PRISM: AUC: 0.9939
Cell line C75_LARGE_INTESTINE
  RMC-6236: RevMed PRISM: AUC: 0.7717
Cell line C8166_HAEMATOPOIETIC_AND_LYMPHOID_TISSUE, NRAS p.Q61K
  RMC-6236: RevMed PRISM: AUC: 0.7009
Cell line CADOES1_BONE
  RMC-6236: RevMed PRISM: AUC: 1
Cell line CAL33_UPPER_AERODIGESTIVE_TRACT
  RMC-6236: RevMed PRISM: AUC: 0.4806
Cell line CAL62_THYROID, KRAS p.G12R
  RMC-6236: RevMed PRISM: AUC: 0.8976
Cell line CAS1_CENTRAL_NERVOUS_SYSTEM
  RMC-6236: RevMed PRISM: AUC: 0.8864
Cell line CASKI_CERVIX
  RMC-6236: RevMed PRISM: AUC: 0.6908
Cell line CBAGPN_BONE
  RMC-6236: RevMed PRISM: AUC: 0.689
Cell line CCFSTTG1_CENTRAL_NERVOUS_SYSTEM
  RMC-6236: RevMed PRISM: AUC: 0.7893
Cell line CCLP1_BILIARY_TRACT
  RMC-6236: RevMed PRISM: AUC: 0.7167
Cell line CHLA06ATRT_SOFT_TISSUE
  RMC-6236: RevMed PRISM: AUC: 0.5329
Cell line CMLT1_HAEMATOPOIETIC_AND_LYMPHOID_TISSUE
  RMC-6236: RevMed PRISM: AUC: 0.7091
Cell line COGN278_AUTONOMIC_GANGLIA
  RMC-6236: RevMed PRISM: AUC: 0.5921
Cell line COLO668_LUNG, KRAS p.G12V
  RMC-6236: RevMed PRISM: AUC: 0.6761
Cell line COLO800_SKIN
  RMC-6236: RevMed PRISM: AUC: 0.802
Cell line COV434_OVARY
  RMC-6236: RevMed PRISM: AUC: 1
Cell line CW2_LARGE_INTESTINE, KRAS p.P140H
  RMC-6236: RevMed PRISM: AUC: 0.8405
Cell line DEL_HAEMATOPOIETIC_AND_LYMPHOID_TISSUE
  RMC-6236: RevMed PRISM: AUC: 0.8273
Cell line DL_SOFT_TISSUE
  RMC-6236: RevMed PRISM: AUC: 0.8
Cell line DND41_HAEMATOPOIETIC_AND_LYMPHOID_TISSUE, NRAS p.Q61H
  RMC-6236: RevMed PRISM: AUC: 0.8204
Cell line DOHH2_HAEMATOPOIETIC_AND_LYMPHOID_TISSUE
  RMC-6236: RevMed PRISM: AUC: 0.9076
Cell line DV90_LUNG, KRAS p.G13D
  RMC-6236: RevMed PRISM: AUC: 0.3365
Cell line EB1_HAEMATOPOIETIC_AND_LYMPHOID_TISSUE
  RMC-6236: RevMed PRISM: AUC: 0.7975
Cell line EN_ENDOMETRIUM
  RMC-6236: RevMed PRISM: AUC: 0.893
Cell line G401_SOFT_TISSUE
  RMC-6236: RevMed PRISM: AUC: 0.9303
